Data as given in PMC4336329 (PLoS ONE, 2015).
Hit rate of the full screen: of about 310,000 compounds, about 14,000 (4.5%) showed an effect of 50% or more. The effect is printed as a negative number. Some of the results follow.

molecular target: human ether-à-go-go-related gene (hERG) potassium channel (human, UniProt Q12809); assay: primary screen, population patch clamp on CHO cells stably expressing hERG
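Note: peak tail current of the secondary pulse compared with the same well before compound.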

Chain of human ether-à-go-go-related gene (hERG) potassium channel (Q12809 whole entry, looked up): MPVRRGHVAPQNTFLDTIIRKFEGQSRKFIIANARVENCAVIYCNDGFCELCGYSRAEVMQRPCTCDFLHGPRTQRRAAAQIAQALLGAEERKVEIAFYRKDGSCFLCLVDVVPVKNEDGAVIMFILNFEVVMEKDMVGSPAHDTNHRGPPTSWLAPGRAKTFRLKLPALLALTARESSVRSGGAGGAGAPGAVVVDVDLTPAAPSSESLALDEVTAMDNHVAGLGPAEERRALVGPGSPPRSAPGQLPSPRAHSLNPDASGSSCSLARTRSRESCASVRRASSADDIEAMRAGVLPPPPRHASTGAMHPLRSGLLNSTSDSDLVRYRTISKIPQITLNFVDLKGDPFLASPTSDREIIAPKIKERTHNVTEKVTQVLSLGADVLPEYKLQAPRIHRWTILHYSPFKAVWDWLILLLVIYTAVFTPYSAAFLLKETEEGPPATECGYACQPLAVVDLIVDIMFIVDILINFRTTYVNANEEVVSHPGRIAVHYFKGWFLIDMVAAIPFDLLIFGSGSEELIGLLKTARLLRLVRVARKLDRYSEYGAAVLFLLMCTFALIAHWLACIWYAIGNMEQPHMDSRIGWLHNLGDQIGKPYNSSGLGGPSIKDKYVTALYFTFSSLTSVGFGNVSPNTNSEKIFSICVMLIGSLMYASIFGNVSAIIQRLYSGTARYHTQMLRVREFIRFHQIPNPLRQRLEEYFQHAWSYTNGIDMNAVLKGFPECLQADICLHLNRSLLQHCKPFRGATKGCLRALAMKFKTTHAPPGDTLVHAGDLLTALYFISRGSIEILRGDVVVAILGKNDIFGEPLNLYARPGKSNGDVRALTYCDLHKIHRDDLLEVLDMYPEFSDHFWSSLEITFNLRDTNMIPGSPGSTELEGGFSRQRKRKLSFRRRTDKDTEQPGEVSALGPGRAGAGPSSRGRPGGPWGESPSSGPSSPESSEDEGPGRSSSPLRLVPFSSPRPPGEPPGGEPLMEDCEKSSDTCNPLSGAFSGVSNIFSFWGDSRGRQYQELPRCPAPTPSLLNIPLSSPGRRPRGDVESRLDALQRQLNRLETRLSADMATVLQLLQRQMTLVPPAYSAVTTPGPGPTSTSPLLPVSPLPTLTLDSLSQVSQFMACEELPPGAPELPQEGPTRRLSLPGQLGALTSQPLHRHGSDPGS

Row | Compound | hERG current change (%, negative = inhibition) at 10uM
1 | COCCCNC(=O)CN1C(=O)c2ccccc2C1=O | 4.45%
2 | COc1ccc(OC)c(NC(=O)C(C)SCc2nc3sc(C)c(C)c3c(=O)[nH]2)c1 (stereo not drawn) | -14%
3 | COc1ccc(S(=O)(=O)N2CCCCCC2)cc1C(=O)OC(C)C(N)=O (stereo not drawn) | 13.6%
4 | O=[N+]([O-])c1ccc(Cl)c(/C=N/n2c(-c3cccnc3)n[nH]c2=S)c1 | 11.2%
5 | COCCN1C(=O)c2ccccc2C(C(=O)NCCN(C)C)C1c1ccc(F)cc1 (stereo not drawn) | 16.8%
6 | Cc1ccc(C)c(NS(=O)(=O)c2ccc3c(c2)Cc2cc(S(=O)(=O)Nc4cc(C)ccc4C)ccc2-3)c1 | 4.5%
7 | CCCC(=O)Nc1cc(C)c(NC(=O)c2cccs2)cn1 | -1.84%
8 | CC(C)CC(=O)c1c[nH]c(C(=O)NCC2CCCO2)c1 (stereo not drawn) | 12.1%
9 | COc1ccc(C(=O)CCNc2ccc3c(c2)OCCO3)cc1 | 27.6%
10 | Cc1cc(C)n(CC(=O)N2CCCC(N3CCN(c4cccc(C(F)(F)F)c4)CC3)C2)n1 (stereo not drawn) | -19.5%
11 | COc1ccc(-c2n[nH]c3c2CN(C(=O)c2ccc(OC)c(OC)c2)CC3)cc1 | -15.5%
12 | COC(=O)c1cn(C(=O)c2cccc(C)c2)c2ccccc12 | -10.8%
13 | Cc1ccc(NC(=O)COC(=O)CCc2c[nH]c(=O)[nH]2)cc1 | 1.45%
14 | Cn1c(=O)c2c(nc(NCC3CCCO3)n2Cc2cccc(Br)c2)n(C)c1=O (stereo not drawn) | -4.28%
15 | O=C(COc1ccc(S(=O)(=O)N2CCCCC2)cc1)Nc1ccccc1F | 16.8%
16 | Cc1ccc(C)c(NC(=O)CN(C)C(=O)Cc2ccccc2)c1 | -2.83%
17 | CCOC(=O)C1CCCN(S(=O)(=O)CCNC(=O)c2ccc(F)cc2)C1 (stereo not drawn) | -16.7%
18 | O=C(N/N=C/c1cccnc1)C(O)c1ccccc1 (stereo not drawn) | 16%
19 | CCSc1nnc(NC(=O)NCC(F)(F)F)s1 | 2.59%
20 | O=C(O)COc1ccc(/C=N/NC(=O)/C(=C/C=C/c2ccccc2)NC(=O)c2ccccc2)cc1 | 19.2%
21 | Cn1c(=O)c2c(nc(SCCN3CCCCC3)n2C)n(C)c1=O | 3.49%
22 | COc1ccc(C(=O)C(C)OC(=O)c2nc3nccc(C)n3n2)cc1 (stereo not drawn) | 2.98%

Row | Compound | hERG current change (%, negative = inhibition) at 10uM
23 | N#Cc1ccc(C(=O)OCCCc2cc3ccccc3c(=O)o2)cc1 | -69.4%
24 | Cc1ccnc(NS(=O)(=O)c2ccc(NC(=O)c3oc4ccc(F)cc4c3C)cc2)n1 | -1.75%
25 | COc1ccc(-n2c(SCC(=O)Nc3ncc(Cl)cc3Cl)nc3ccccc32)cc1 | -7.86%
26 | Cc1cc(C(=O)CSc2ccc(Cl)cc2)cc(C)c1OC(=S)N(C)C | 9.6%
27 | CC(C)c1ccccc1NC(=O)CCCC(=O)O | 6.18%
28 | COc1ccc(NC(=O)CNC(=O)Cn2c(C)cc3ccccc3c2=O)cc1OC | 12.3%
29 | Cc1ccc(-n2c3c(cc(C(=O)O)c2=O)C(=O)CC(C)(C)C3)cc1 | 19.2%
30 | Cn1c(O)c(C(C#N)=C2N=c3ccccc3=N2)c2ccccc21 | -5.16%
31 | COCCNC(=O)C(=O)NCC1OCCN1S(=O)(=O)c1cccs1 (stereo not drawn) | 0.574%
32 | CCOC(=O)C1(Cc2ccccc2)CCN(Cc2cc(=O)c3ccccc3[nH]2)CC1 | 13.5%
33 | O=C(Nc1ccc(O)c(-c2nc3ccccc3o2)c1)C1(c2ccc(Br)cc2)CCCC1 | 5.36%
34 | COc1ccc(N2CC(C(=O)N/N=C/c3ccc(C)cc3)CC2=O)cc1 (stereo not drawn) | -18.8%
35 | COCc1c(C(=O)N/N=C/c2ccc(C)o2)nnn1-c1nonc1N | 17.6%
36 | COc1ccc(/C=C/C(=O)OCC(=O)N2CCc3ccccc32)cc1 | -0.65%
37 | CCOC(=O)CSc1ncc(OC)c(Sc2ccc(OC)cc2)n1 | -15.5%
38 | O=C(NNC(=O)c1c(F)cccc1F)c1sccc1-n1cccc1 | 11%
39 | CCC1(c2ccc(F)cc2)NC(=O)N(CC(=O)Nc2ccccc2C)C1=O (stereo not drawn) | 4.76%
40 | O=C(CSC1CN(C(c2ccccc2)c2ccccc2)C1)N/N=C/c1ccc(Cl)cc1Cl | 12.8%
41 | CCCC(C(=O)Nc1ccc(S(=O)(=O)N2CCOCC2)cc1)c1ccccc1 (stereo not drawn) | -13.7%
42 | COCCSc1nnc(NC(=O)CSCc2ccccc2)s1 | 7.34%
43 | CC(=O)N1c2ccc(S(=O)(=O)NCC3CCC(C(=O)NCc4ccco4)CC3)cc2CC1C (stereo not drawn) | 17%
44 | CC(C)(Oc1ccc(Cl)cc1)C(=O)OCC(=O)N1CCN(c2ccccc2)CC1 | -7.02%

Row | Compound | hERG current change (%, negative = inhibition) at 10uM
45 | CC(C)C1Oc2ccccc2N(CC(=O)N(C)C2CCCCC2)C1=O (stereo not drawn) | -10.1%
46 | CCCCOC(=O)C1=C(N)OC2=C(C(=O)CCC2)[C@]12C(=O)N(C)c1ccccc12 | -5.2%
47 | CN1CCN(S(=O)(=O)c2cccc(C(=O)Nc3sc4c(c3C(N)=O)CCCC4)c2)CC1 | -9.38%
48 | CCCCn1c(N)c(N(CCC(C)C)C(=O)CC2OC(=O)c3ccccc32)c(=O)[nH]c1=O (stereo not drawn) | 2.07%
49 | CC(NC(=O)C(C)N1C(=O)C2C3CC(C(Br)C3Br)C2C1=O)c1ccccc1 (stereo not drawn) | -4.14%
50 | N#Cc1ccccc1NC(=O)C1CC(=O)N(c2ccc3c4c(cccc24)CC3)C1 (stereo not drawn) | 1.8%
51 | Cc1c(C)c2ccc(OCC(=O)N(C)C)c(C)c2oc1=O | -6.44%
52 | C=CCSc1nnc(NC(=O)c2cn(CC)c3nc(C)ccc3c2=O)s1 | -9.96%
53 | O=C(COc1ccc(S(=O)(=O)NCc2ccccc2)cc1)NCC1CCCO1 (stereo not drawn) | -1.71%
54 | COc1ccccc1CNC(=O)c1cc(-c2ccncc2)nc2c(Cl)cccc12 | 10.5%
55 | CC1CCCC(C)N1C(=O)CSc1nnc(-c2ccco2)n1C (stereo not drawn) | 5.84%
56 | Cc1cc2cc(OCc3ccccc3)ccc2n1C | 18%
57 | CCC(C)(C)C1CCC2(CC1)NC(=O)N(CC(=O)Nc1cc(C(F)(F)F)ccc1N1CCOCC1)C2=O (stereo not drawn) | 16.7%
58 | O=C(COc1cc2oc(=O)cc(-c3ccccc3)c2cc1Cl)NCCN1CCOCC1 | 2.07%
59 | COc1cc2c(cc1OC)C(c1cccc([N+](=O)[O-])c1)N(C(=O)c1ccccc1C(=O)O)CC2 (stereo not drawn) | 18.1%
60 | Cn1c(CCN2CCOCC2)nc2cc(NS(=O)(=O)c3ccccc3)ccc21 | -1.84%
61 | CCOC(=O)C1CCCN(C(=O)CSc2nccn2C)C1 (stereo not drawn) | -0.344%
62 | NNC(=O)c1sc(-c2ccc(Cl)cc2)cc1N | 20.2%
63 | CC(=O)c1cccc(NC(=O)C2CCCN2S(=O)(=O)c2cccc3cccnc23)c1 (stereo not drawn) | -10.8%
64 | Cc1sc2c(c1C)C(=O)NC(c1cccc(O)c1)N2 (stereo not drawn) | 19.7%
65 | CC(C)(C)NC(=S)NC1CC1 | 14.8%
66 | Cc1cc(Cl)ccc1N(CC(=O)N=Nc1c(O)[nH]c2ccccc12)S(C)(=O)=O | -13.2%

Row | Compound | hERG current change (%, negative = inhibition) at 10uM
67 | COc1ccc(OC)c(-n2cnc3cc(C(=O)O)ccc32)c1 | 3.06%
68 | Cc1cccc(C)c1N1CCN(S(=O)(=O)c2ccccc2)CC1 | 11.4%
69 | CCOc1ccc(S(=O)(=O)N2CCN(c3ccccc3OC)CC2)c2cccnc12 | -14.6%
70 | O=C(O)c1ccccc1NCc1ccco1 | 17.3%
71 | O=C(Cc1ccc(Cl)cc1)NC(=S)Nc1ccccc1N1CCOCC1 | -6.41%
72 | CCOCCn1c(=NC(=O)c2cc(Cl)sc2Cl)sc2cc(S(N)(=O)=O)ccc21 | 10.4%
73 | CCc1ccc(Oc2nnnn2-c2ccc(C(N)=O)cc2)cc1 | 16.5%
74 | Cc1ccc(CCN=c2c([N+](=O)[O-])nn(-c3ccccc3)n2O)cc1 | 17%
75 | O=C1C=C(c2ccc3ccccc3c2)C[C@@H](c2ccc(F)cc2)C1 | -0.559%
76 | CCOc1ccc(-c2nc(N)ncc2-c2ccc(Cl)cc2)c(O)c1 | 10.8%
77 | CCC(NC(=O)CCc1c(C)c2cc3c(C)c(C)oc3cc2oc1=O)C(=O)N[C@@H](Cc1ccccc1)C(=O)O (stereo partly drawn) | 18.3%
78 | CN(Cc1ncc[nH]1)Cc1cn(-c2ccccc2)nc1-c1ccc2c(c1)OCO2 | -60.1%
79 | CCCCNC(=O)N1CCCN(c2ccc(C#N)cn2)CC1 | -49.8%
80 | c1ccc2c(c1)CCCN2Cc1nnnn1C1CCCC1 | -3.84%
81 | COc1ccc(CNC(=O)Cn2cncn2)cc1OC | 6.37%
82 | CCc1ccc(-c2cc(C)no2)cc1S(=O)(=O)N1CCN(c2ccccc2F)CC1 | 15.7%
83 | O=C(Nc1c(-c2ccccc2)nc2ccccn12)c1ccccc1 | 12.4%
84 | Cc1nn2c(=O)cc(CSCC(=O)Nc3ccccc3F)nc2s1 | 14.4%
85 | COc1ccc(NC2=C(Cl)C(=O)N(c3ccccc3)C2=O)c(OC)c1 | 15.5%
86 | O=C(c1ccco1)N(Cc1ccco1)Cc1cc2ccccc2[nH]c1=O | -17.9%
87 | CCC(C)[C@H](NC(=O)NCc1ccc(OC)c(OC)c1)C(=O)O (stereo partly drawn) | 7.82%
